Consider twelve sequences from the supplement of paper PMC12230231.

± gives the standard deviation of the averaged measurements. Restriction of a single-cycle SIVsab GFP reporter by TRIM5α v1-loop variants in CRFK cells. Human variants: read share among cells still uninfected after two challenges over input, higher = gained restriction. Rhesus variants: share among infected cells over input, higher = lost restriction. Reporter dose not given per row. No active / inactive call per row; the paper calls a change when both replicates lie above its controls (mean + 2 SD of stop or wild-type variants, or the top frameshift score). Residues outside the varied loop are taken from Swiss-Prot. The paper reads the human single-substitution scores as noise; they and the rhesus combinations repeat poorly (rank correlation 0.3 to 0.4), indel scores repeat only for the top variants, rhesus substitutions well (0.9).

In the data set the test system is SIVsab (simian immunodeficiency virus of sabaeus monkeys), single-cycle GFP reporter, in CRFK cells. Briefly: enrichment among uninfected cells over input (fold); higher = stronger restriction. Conditions: library: insertions and deletions. The procedure: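 Pools of CRFK cells expressing variants of the TRIM5α v1 loop were challenged with the single-cycle reporter, sorted by GFP and sequenced; mean of two replicates.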
Take “MASGILVNVKEEVTCPICLELLTQPLSLDCGHSFCQACLTANHKKSMLDKGESSCPVCRISYQPENIRPNRHVANIVEKLREVKLSPEGQKVDHCARHGEKLLLFCQEDGKVICWLCERSQEHRGHHTFLTEEVAREYQVKLQAALEMLRQKQQEAEELEADIREEKASWKTQIQYDKTNVLADFEQLRDILDWEESNELQNLEKEEEDILKSLTNSETEMVQQTQSLRELISDLEHRLQGSVMELLQGVDGVIKRTENVTLKKPETFPKNQRRVFRAPDLKGMLEVFRELTDVRRYWVDVTVAPNNISCAVISEDKRQVSSPKPQIYGARGTRYQTFVNFNYCTGILGSQSITSGKHYWEVDVSKKTAWILGVCAGFQPDAMCNIEKNENYQPKYGYWVIGLEEGVKCSAFQDSSFHTPSVPFIVPLSVIICPDRVGVFLDYEACTVSFFNITNHGFLIYKFSHCSFSQPVFPYLNPRKCGVPMTLCSPSS [human TRIM5α, 1-codon deletion at 327]”: the enrichment came out at 0.7 ± 0.09. The figure for “MASGILVNVKEEVTCPICLELLTQPLSLDCGHSFCQACLTANHKKSMLDKGESSCPVCRISYQPENIRPNRHVANIVEKLREVKLSPEGQKVDHCARHGEKLLLFCQEDGKVICWLCERSQEHRGHHTFLTEEVAREYQVKLQAALEMLRQKQQEAEELEADIREEKASWKTQIQYDKTNVLADFEQLRDILDWEESNELQNLEKEEEDILKSLTNSETEMVQQTQSLRELISDLEHRLQGSVMELLQGVDGVIKRTENVTLKKPETFPKNQRRVFRAPDLKGMLEVFRELTDVRRYWVDVTVAPNNISCAVISEDKRQVSSPKPQIYGARGTRYQTFVNFNYCTGILGSQSITSGKHYWEVDVSKKTAWILGVCAGFQPDAMCNIEKNENYQPKYGYWVIGLEEGVKCSAFQDSSFHTPSVPFIVPLSVIICPDRVGVFLDYEACTVSFFNITNHGFLIYKFSHCSFSQPVFPYLNPRKCGVPMTLCSPSS [human TRIM5α, 1-codon deletion at 328]” is 0.7 ± 0.09; for “MASGILVNVKEEVTCPICLELLTQPLSLDCGHSFCQACLTANHKKSMLDKGESSCPVCRISYQPENIRPNRHVANIVEKLREVKLSPEGQKVDHCARHGEKLLLFCQEDGKVICWLCERSQEHRGHHTFLTEEVAREYQVKLQAALEMLRQKQQEAEELEADIREEKASWKTQIQYDKTNVLADFEQLRDILDWEESNELQNLEKEEEDILKSLTNSETEMVQQTQSLRELISDLEHRLQGSVMELLQGVDGVIKRTENVTLKKPETFPKNQRRVFRAPDLKGMLEVFRELTDVRRYWVDVTVAPNNISCAVISEDKRQVSSPKPQIYQTFVNFNYCTGILGSQSITSGKHYWEVDVSKKTAWILGVCAGFQPDAMCNIEKNENYQPKYGYWVIGLEEGVKCSAFQDSSFHTPSVPFIVPLSVIICPDRVGVFLDYEACTVSFFNITNHGFLIYKFSHCSFSQPVFPYLNPRKCGVPMTLCSPSS [human TRIM5α, 8-codon deletion at 328]” it is 0.161 ± 0.1; for “MASGILVNVKEEVTCPICLELLTQPLSLDCGHSFCQACLTANHKKSMLDKGESSCPVCRISYQPENIRPNRHVANIVEKLREVKLSPEGQKVDHCARHGEKLLLFCQEDGKVICWLCERSQEHRGHHTFLTEEVAREYQVKLQAALEMLRQKQQEAEELEADIREEKASWKTQIQYDKTNVLADFEQLRDILDWEESNELQNLEKEEEDILKSLTNSETEMVQQTQSLRELISDLEHRLQGSVMELLQGVDGVIKRTENVTLKKPETFPKNQRRVFRAPDLKGMLEVFRELTDVRRYWVDVTVAPNNISCAVISEDKRQVSSPKPQKPQIIYGARGTRYQTFVNFNYCTGILGSQSITSGKHYWEVDVSKKTAWILGVCAGFQPDAMCNIEKNENYQPKYGYWVIGLEEGVKCSAFQDSSFHTPSVPFIVPLSVIICPDRVGVFLDYEACTVSFFNITNHGFLIYKFSHCSFSQPVFPYLNPRKCGVPMTLCSPSS [human TRIM5α, 3-codon duplication at 324]” it is 0.213 ± 0.14. The figure for “MASGILVNVKEEVTCPICLELLTQPLSLDCGHSFCQACLTANHKKSMLDKGESSCPVCRISYQPENIRPNRHVANIVEKLREVKLSPEGQKVDHCARHGEKLLLFCQEDGKVICWLCERSQEHRGHHTFLTEEVAREYQVKLQAALEMLRQKQQEAEELEADIREEKASWKTQIQYDKTNVLADFEQLRDILDWEESNELQNLEKEEEDILKSLTNSETEMVQQTQSLRELISDLEHRLQGSVMELLQGVDGVIKRTENVTLKKPETFPKNQRRVFRAPDLKGMLEVFRELTDVRRYWVDVTVAPNNISCAVISEDKRQVSSPKPQPQIIYGARGTRYQTFVNFNYCTGILGSQSITSGKHYWEVDVSKKTAWILGVCAGFQPDAMCNIEKNENYQPKYGYWVIGLEEGVKCSAFQDSSFHTPSVPFIVPLSVIICPDRVGVFLDYEACTVSFFNITNHGFLIYKFSHCSFSQPVFPYLNPRKCGVPMTLCSPSS [human TRIM5α, 2-codon duplication at 325]” is 0.477 ± 0.16.

In turn, “MASGILVNVKEEVTCPICLELLTQPLSLDCGHSFCQACLTANHKKSMLDKGESSCPVCRISYQPENIRPNRHVANIVEKLREVKLSPEGQKVDHCARHGEKLLLFCQEDGKVICWLCERSQEHRGHHTFLTEEVAREYQVKLQAALEMLRQKQQEAEELEADIREEKASWKTQIQYDKTNVLADFEQLRDILDWEESNELQNLEKEEEDILKSLTNSETEMVQQTQSLRELISDLEHRLQGSVMELLQGVDGVIKRTENVTLKKPETFPKNQRRVFRAPDLKGMLEVFRELTDVRRYWVDVTVAPNNISCAVISEDKRQVSSPKPQQIIYGARGTRYQTFVNFNYCTGILGSQSITSGKHYWEVDVSKKTAWILGVCAGFQPDAMCNIEKNENYQPKYGYWVIGLEEGVKCSAFQDSSFHTPSVPFIVPLSVIICPDRVGVFLDYEACTVSFFNITNHGFLIYKFSHCSFSQPVFPYLNPRKCGVPMTLCSPSS [human TRIM5α, 1-codon duplication at 326]” displayed an enrichment of 0.827 ± 0.11.

“MASGILVNVKEEVTCPICLELLTQPLSLDCGHSFCQACLTANHKKSMLDKGESSCPVCRISYQPENIRPNRHVANIVEKLREVKLSPEGQKVDHCARHGEKLLLFCQEDGKVICWLCERSQEHRGHHTFLTEEVAREYQVKLQAALEMLRQKQQEAEELEADIREEKASWKTQIQYDKTNVLADFEQLRDILDWEESNELQNLEKEEEDILKSLTNSETEMVQQTQSLRELISDLEHRLQGSVMELLQGVDGVIKRTENVTLKKPETFPKNQRRVFRAPDLKGMLEVFRELTDVRRYWVDVTVAPNNISCAVISEDKRQVSSPKPQRGTRYQTFVNFNYCTGILGSQSITSGKHYWEVDVSKKTAWILGVCAGFQPDAMCNIEKNENYQPKYGYWVIGLEEGVKCSAFQDSSFHTPSVPFIVPLSVIICPDRVGVFLDYEACTVSFFNITNHGFLIYKFSHCSFSQPVFPYLNPRKCGVPMTLCSPSS [human TRIM5α, 5-codon deletion at 327]” registered an enrichment of 0.982 ± 0.28. Under “MASGILVNVKEEVTCPICLELLTQPLSLDCGHSFCQACLTANHKKSMLDKGESSCPVCRISYQPENIRPNRHVANIVEKLREVKLSPEGQKVDHCARHGEKLLLFCQEDGKVICWLCERSQEHRGHHTFLTEEVAREYQVKLQAALEMLRQKQQEAEELEADIREEKASWKTQIQYDKTNVLADFEQLRDILDWEESNELQNLEKEEEDILKSLTNSETEMVQQTQSLRELISDLEHRLQGSVMELLQGVDGVIKRTENVTLKKPETFPKNQRRVFRAPDLKGMLEVFRELTDVRRYWVDVTVAPNNISCAVISEDKRQVSSPKPQRYQTFVNFNYCTGILGSQSITSGKHYWEVDVSKKTAWILGVCAGFQPDAMCNIEKNENYQPKYGYWVIGLEEGVKCSAFQDSSFHTPSVPFIVPLSVIICPDRVGVFLDYEACTVSFFNITNHGFLIYKFSHCSFSQPVFPYLNPRKCGVPMTLCSPSS [human TRIM5α, 8-codon deletion at 327]” stands 1.19 ± 0.59; under “MASGILVNVKEEVTCPICLELLTQPLSLDCGHSFCQACLTANHKKSMLDKGESSCPVCRISYQPENIRPNRHVANIVEKLREVKLSPEGQKVDHCARHGEKLLLFCQEDGKVICWLCERSQEHRGHHTFLTEEVAREYQVKLQAALEMLRQKQQEAEELEADIREEKASWKTQIQYDKTNVLADFEQLRDILDWEESNELQNLEKEEEDILKSLTNSETEMVQQTQSLRELISDLEHRLQGSVMELLQGVDGVIKRTENVTLKKPETFPKNQRRVFRAPDLKGMLEVFRELTDVRRYWVDVTVAPNNISCAVISEDKRQVSSPKPQTRYQTFVNFNYCTGILGSQSITSGKHYWEVDVSKKTAWILGVCAGFQPDAMCNIEKNENYQPKYGYWVIGLEEGVKCSAFQDSSFHTPSVPFIVPLSVIICPDRVGVFLDYEACTVSFFNITNHGFLIYKFSHCSFSQPVFPYLNPRKCGVPMTLCSPSS [human TRIM5α, 7-codon deletion at 327]”, 0.691 ± 0.3; under “MASGILVNVKEEVTCPICLELLTQPLSLDCGHSFCQACLTANHKKSMLDKGESSCPVCRISYQPENIRPNRHVANIVEKLREVKLSPEGQKVDHCARHGEKLLLFCQEDGKVICWLCERSQEHRGHHTFLTEEVAREYQVKLQAALEMLRQKQQEAEELEADIREEKASWKTQIQYDKTNVLADFEQLRDILDWEESNELQNLEKEEEDILKSLTNSETEMVQQTQSLRELISDLEHRLQGSVMELLQGVDGVIKRTENVTLKKPETFPKNQRRVFRAPDLKGMLEVFRELTDVRRYWVDVTVAPNNISCAVISEDKRQVSSPKPQYGARGTRYQTFVNFNYCTGILGSQSITSGKHYWEVDVSKKTAWILGVCAGFQPDAMCNIEKNENYQPKYGYWVIGLEEGVKCSAFQDSSFHTPSVPFIVPLSVIICPDRVGVFLDYEACTVSFFNITNHGFLIYKFSHCSFSQPVFPYLNPRKCGVPMTLCSPSS [human TRIM5α, 2-codon deletion at 327]”, 1.07 ± 1.1. Consider “MASGILVNVKEEVTCPICLELLTQPLSLDCGHSFCQACLTANHKKSMLDKGESSCPVCRISYQPENIRPNRHVANIVEKLREVKLSPEGQKVDHCARHGEKLLLFCQEDGKVICWLCERSQEHRGHHTFLTEEVAREYQVKLQAALEMLRQKQQEAEELEADIREEKASWKTQIQYDKTNVLADFEQLRDILDWEESNELQNLEKEEEDILKSLTNSETEMVQQTQSLRELISDLEHRLQGSVMELLQGVDGVIKRTENVTLKKPETFPKNQRRVFRAPDLKGMLEVFRELTDVRRYWVDVTVAPNNISCAVISEDKRQVSSPKPQYQTFVNFNYCTGILGSQSITSGKHYWEVDVSKKTAWILGVCAGFQPDAMCNIEKNENYQPKYGYWVIGLEEGVKCSAFQDSSFHTPSVPFIVPLSVIICPDRVGVFLDYEACTVSFFNITNHGFLIYKFSHCSFSQPVFPYLNPRKCGVPMTLCSPSS [human TRIM5α, 9-codon deletion at 327]”, for which the enrichment is 1.15 ± 0.43.

“MASGILVNVKEEVTCPICLELLTQPLSLDCGHSFCQACLTANHKKSMLDKGESSCPVCRISYQPENIRPNRHVANIVEKLREVKLSPEGQKVDHCARHGEKLLLFCQEDGKVICWLCERSQEHRGHHTFLTEEVAREYQVKLQAALEMLRQKQQEAEELEADIREEKASWKTQIQYDKTNVLADFEQLRDILDWEESNELQNLEKEEEDILKSLTNSETEMVQQTQSLRELISDLEHRLQGSVMELLQGVDGVIKRTENVTLKKPETFPKNQRRVFRAPDLKGMLEVFRELTDVRRYWVDVTVAPNNISCAVISEDKRQVSSPKPRGTRYQTFVNFNYCTGILGSQSITSGKHYWEVDVSKKTAWILGVCAGFQPDAMCNIEKNENYQPKYGYWVIGLEEGVKCSAFQDSSFHTPSVPFIVPLSVIICPDRVGVFLDYEACTVSFFNITNHGFLIYKFSHCSFSQPVFPYLNPRKCGVPMTLCSPSS [human TRIM5α, 6-codon deletion at 326]”: the enrichment stood at 2.48 ± 3.4.
